# Residue numbers refer to the chain shown, from its start. The list shows a part of the results.
# T1: RBFOX1 RRM RbFoxmut (Fox-RRM*) (Homo sapiens, UniProt Q9NWB1 109-208, R118D;E147R;N151S;E152T)
# T1 sequence: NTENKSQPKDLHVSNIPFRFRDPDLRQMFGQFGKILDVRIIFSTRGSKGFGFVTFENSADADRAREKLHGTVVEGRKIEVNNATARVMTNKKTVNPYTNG
# B1: UGCAAUU (DNA:RNA)
# RNA: GGGAGACCGGAAUUCAGAUUGUCCUGCAAUUUUAAAUCCCGUCGUAGCCACCA
# DNA 1: CAATCTGAATTCCGGTCTCCC
# DNA 2: TGGTGGCTACGACGGGATT
# B2: AGUGUGG (DNA:RNA)
# RNA: B1 RNA with U25A, C27U, A28G, A29U, U30G, U31G
# DNA 1: CAATCTGAATTCCGGTCTCCC
# DNA 2: TGGTGGCTACGACGGGATT
# B3: CUCCAUG (DNA:RNA)
# RNA: B1 RNA with U25C, G26U, A28C, U31G
# DNA 1: CAATCTGAATTCCGGTCTCCC
# DNA 2: TGGTGGCTACGACGGGATT
# B4: CCACGAG (DNA:RNA)
# RNA: GGGAGACCGGAAUUCAGAUUGUCCCCACGAGUUAAAUCCCGUCGUAGCCACCA
# DNA 1: CAATCTGAATTCCGGTCTCCC
# DNA 2: TGGTGGCTACGACGGGATT
# B5: GGCGUAU (DNA:RNA)
# RNA: B1 RNA with U25G, A28G, A29U, U30A
# DNA 1: CAATCTGAATTCCGGTCTCCC
# DNA 2: TGGTGGCTACGACGGGATT
# B6: GUUCUGU (DNA:RNA)
# RNA: B4 RNA with C25G, C26U, A27U, G29U, A30G, G31U
# DNA 1: CAATCTGAATTCCGGTCTCCC
# DNA 2: TGGTGGCTACGACGGGATT
# B7: AUAACAC (DNA:RNA)
# RNA: B4 RNA with C25A, C26U, C28A, G29C, G31C
# DNA 1: CAATCTGAATTCCGGTCTCCC
# DNA 2: TGGTGGCTACGACGGGATT
# B8: UAUAACA (DNA:RNA)
# RNA: B1 RNA with G26A, C27U, U30C, U31A
# DNA 1: CAATCTGAATTCCGGTCTCCC
# DNA 2: TGGTGGCTACGACGGGATT
# B9: UCCGUCC (DNA:RNA)
# RNA: B1 RNA with G26C, A28G, A29U, U30C, U31C
# DNA 1: CAATCTGAATTCCGGTCTCCC
# DNA 2: TGGTGGCTACGACGGGATT
# Target: T1, RBFOX1 RRM RbFoxmut (Fox-RRM*)
# Experiment: EMSA; HiTS-Eq, 1 nM pool, 10 min; buffer printed only for the single-RNA assays: 10 mM Tris pH 7.5, 150 mM NaCl, 3.4 mM EDTA, 0.001% NP-40, 30 C
# Conditions: tags: His6 N-terminal (pET28a); label: 5' 32P
# Procedure, shortened: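 A pool of RNA with 7 randomized nucleotides, 5′-radiolabelled and with DNA-annealed flanks, was equilibrated at 1 nM for 10 min in 50 µL with purified RbFox RRM, wild type or mutant, across increasing protein concentrations. Free RNA was separated by 8% native PAGE, excised, reverse-transcribed, barcoded by PCR and sequenced. Relative association constants were obtained from read-count changes of each RNA species versus the control reaction and normalised to the cognate motif.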
row,Binder,binding signal
1,B1,0.0703 KA relative to UGCAUGU
2,B2,0.13 KA relative to UGCAUGU
3,B3,0.146 KA relative to UGCAUGU
4,B4,0.121 KA relative to UGCAUGU
5,B5,0.101 KA relative to UGCAUGU
6,B6,0.15 KA relative to UGCAUGU
7,B7,0.0733 KA relative to UGCAUGU
8,B8,0.0534 KA relative to UGCAUGU
9,B9,0.066 KA relative to UGCAUGU

# — article PMC9911399, “Two distinct binding modes provide the RNA-binding protein RbFox with extraordinary sequence specificity”
